Laboratory results as given in patent US9803019B2, “Carrier immunoglobulins and uses thereof” (Amgen Inc., priority 2010, dated 2017).

Test: Cynomolgus PK, single IV bolus (Example 4)
Assay type: in vivo, cynomolgus monkeys (Macaca fascicularis)
Details: single IV bolus 1 mg/kg or 10 mg/kg
Procedure: Serum samples were collected pre-dose and at 0.25, 0.5, 1, 4, 8, 12, 24, 48, 72, 96, 120, 144, 168, 192, 216, 240, 264, 288, 312, 360, 408, 456, 504, 552, 600, 648 and 672 hours after administration. Samples were assayed for 16435 antibody levels using an anti-IgG sandwich ELISA.
The pharmacokinetic profile of the 16435 antibody was determined in cynomolgus monkeys (Macaca fascicularis) to assess the in vivo parameters. Briefly, a single IV bolus dose of 16435, either 1 mg/kg or 10 mg/kg, was administered to mature male cynomolgus monkeys (n=2 per group). Serum samples were collected pre-dose and at timepoints 0.25, 0.5, 1, 4, 8, 12, 24, 48, 72, 96, 120, 144, 168, 192, 216, 240, 264, 288, 312, 360, 408, 456, 504, 552, 600, 648 and 672 hours after antibody administration. Samples were assayed for 16435 antibody levels by using an anti-IgG sandwich ELISA. Time concentration data were analyzed using non-compartmental methods with WinNonLin® (Enterprise version 5.1.1, 2006, Pharsight® Corp. Mountain View, Calif.).

B1: 16435 (antibody)
heavy: MEWTWRVLFLVAAATGAHSQVQLVQSGAEVKKPGASVKVSCKASGYTFTRYGISWVRQAPGQGLEWMGWISTYSGNTNYAQKLQGRVTMTTDTSTSTAYMELRSLRSDDTAVYYCARAQLYFDYWGQGTLVTVSSASTKGPSVFPLAPCSRSTSESTAALGCLVKDYFPEPVTVSWNSGALTSGVHTFPAVLQSSGLYSLSSVVTVPSSNFGTQTYTCNVDHKPSNTKVDKTVERKCCVECPPCPAPPVAGPSVFLFPPKPKDTLMISRTPEVTCVVVDVSHEDPEVQFNWYVDGVEVHNAKTKPREEQFNSTFRVVSVLTVVHQDWLNGKEYKCKVSNKGLPAPIEKTISKTKGQPREPQVYTLPPSREEMTKNQVSLTCLVKGFYPSDIAVEWESNGQPENNYKTTPPMLDSDGSFFLYSKLTVDKSRWQQGNVFSCSVMHEALHNHYTQKSLSLSPGK
light: EIVMTQSPATLSVSPGERATLSCRASQSVSSNLAWFQQKPGQAPRLLIYDASTRATGVPARFSGSGSGTEFTLTISSLQSEDFAVYYCQQYDNWPLTFGGGTKVEIKRTVAAPSVFIFPPSDEQLKSGTASVVCLLNNFYPREAKVQWKVDNALQSGNSQESVTEQDSKDSTYSLSSTLTLSKADYEKHKVYACEVTHQGLSSPVTKSFNRGEC
modifications: 16435 (LC: P66L, D90E)
  pharmacokinetic profile: did not show any significant abnormalities
